{
  "source": "PubChem BioAssay AID686978",
  "about": "(National Center for Advancing Translational Sciences (NCATS), 2013)",
  "note": "Where “and” joins values, the source holds several entries; their conditions need not be identical. Equal entries are not always repeated. The campaign covered roughly 420,000 compounds. About 64,000 (15%) were called active. The inconclusive results got no clear call from the source; some entries with a clear call stand among them for comparison. Calls come from the whole dose curve; as a rule, active = well fitted inhibition curve with a large enough effect; inconclusive = small, poorly fitted or top-dose-only effect; inactive = flat fitted curve, though single readings scatter. Potencies of inconclusive entries are doubtful fits and often do not repeat. % is set by controls: 0 for no effect and ±100 for the full control effect; potency is the fitted concentration of half-maximal effect; tags give direction and shape of the fitted curve.",
  "data": [
    {"experiment": "qHTS for Inhibitors of human tyrosyl-DNA phosphodiesterase 1 (TDP1): qHTS in cells in absence of CPT; note: nearly all actives have a fitted effect of over 55% in size", "conditions": "DT40 Tdp1-/- hTDP1 cells, no CPT, ATP luminescence, 48 h; activity change, negative = growth inhibition: at 46.2 µM (top of the series)", "method_in_brief": "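Growth of hTDP1-complemented DT40 Tdp1-knockout cells is measured by ATP luminescence after at least 48 hr compound exposure at 37 °C, with DMSO substituting for the 20 nM CPT used in the parallel screen.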", "values": [
      {"smiles": "COc1ccc(/C=C/C(=O)Nc2ccccc2)cc1OC", "activity change, negative = growth inhibition": "inactive: 11.6%"},
      {"smiles": "CC(C)c1ccc(NC(=O)c2ccc3c(c2)C(=O)N(Cc2cccnc2)C3=O)cc1", "activity change, negative = growth inhibition": "inactive: -14.7%"},
      {"smiles": "CC(=O)N1CCc2cc(CNS(=O)(=O)c3ccc(C(C)(C)C)cc3)ccc21", "Potency": "inconclusive: 14.6 µM [inhibitor, partial curve, poor fit]"},
      {"smiles": "Cc1nc2cnc(N3CCN(C)CC3)nc2n(-c2ccccc2)c1=O", "activity change, negative = growth inhibition": "inactive: -15%"},
      {"smiles": "COc1cccc(C(=O)CSc2nnc(COc3cccc4cccnc34)o2)c1", "Potency": "active: 4.11 µM"},
      {"smiles": "CC(=O)Nc1ccc(NS(=O)(=O)c2ccc(Cl)s2)cc1", "activity change, negative = growth inhibition": "inconclusive: -32% [inhibitor]"},
      {"smiles": "O=C(Nc1c(-c2ccc(F)cc2)nc2ccccn12)c1cccc(F)c1", "Potency": "inconclusive: 25.9 µM [inhibitor, single point]"},
      {"smiles": "Cc1c(C(=O)Nc2ccc(F)c(F)c2)oc2ccc(S(=O)(=O)N3CCC4(CC3)OCCO4)cc12", "Potency": "active: 11.6 µM"},
      {"smiles": "C=CCn1c(=O)n2ncnc2c2c3c(sc21)CCCC3", "Potency": "inconclusive: 13 µM [inhibitor, partial curve]"},
      {"smiles": "CCN(CC)S(=O)(=O)c1ccc(Cl)c(C(=O)NCc2ccco2)c1", "Potency": "inconclusive: 29.1 µM [inhibitor, single point]"},
      {"smiles": "O=C(COC(=O)/C=C/c1ccco1)NCc1ccco1", "activity change, negative = growth inhibition": "inactive: 4.95%"},
      {"smiles": "CCC(c1nnnn1-c1ccc2c(c1)OCCO2)N1CCN(c2cccc(C)c2C)CC1", "note": "(configuration not stated)", "Potency": "active: 18.4 µM"},
      {"smiles": "COc1ccccc1CNC(=O)CN(c1ccc(C)cc1)S(=O)(=O)c1c(C)noc1C", "Potency": "inconclusive: 25.9 µM [inhibitor, single point] and inconclusive: 3.66 µM [inhibitor, partial curve, poor fit]"},
      {"smiles": "CCn1c(SCC(=O)Nc2cc(C)nn2-c2ccccc2)nnc1-c1cccs1", "activity change, negative = growth inhibition": "inactive: -4.46%"},
      {"smiles": "C=C(C)c1cccc(C(C)(C)NC(=O)N2CCN(c3ncccn3)CC2)c1", "activity change, negative = growth inhibition": "inactive: -17.4%"},
      {"smiles": "CC(NC(=O)CSc1ncnc2nc[nH]c12)c1ccccc1", "note": "(configuration not stated)", "activity change, negative = growth inhibition": "inactive: -23.3%"},
      {"smiles": "O=C(COc1ccccc1CNC[C@H]1O[C@@H](n2ccc(=O)[nH]c2=O)[C@H](O)[C@@H]1O)N1CCCCC1", "activity change, negative = growth inhibition": "inactive: 4.99%"},
      {"smiles": "CC1C/C(=C\\c2ccccc2[N+](=O)[O-])c2nc3ccccc3c(C(=O)O)c2C1", "note": "(configuration not stated)", "activity change, negative = growth inhibition": "inactive: -13%"},
      {"smiles": "Cc1ccc(Nc2nc3ccccc3[nH]2)nc1", "Potency": "active: 16.4 µM"},
      {"smiles": "O=C(Nc1ccc(S(=O)(=O)N2CCc3ccccc3C2)cc1)C1CCCO1", "note": "(configuration not stated)", "Potency": "inconclusive: 11.2 µM [inhibitor, partial curve]"},
      {"smiles": "CC(C)C1OC(CCc2ccccc2)Cc2[nH][nH]c(=O)c21", "note": "(configuration not stated)", "Potency": "active: 23.1 µM"},
      {"smiles": "COc1ccc(OC)c(NC(=O)c2cnc(N3CCCC3)nc2C)c1", "activity change, negative = growth inhibition": "inactive: -14.1%"}
    ]}
  ]
}
